Measured values as given in PubChem BioAssay AID686978 (National Center for Advancing Translational Sciences (NCATS), 2013).
In all, about 420,000 compounds went through this assay and about 64,000 (15%) were called active. Inconclusive means that the source gave no clear call. Such entries were picked first, then a sample of the others. Calls follow the shape of the dose curve; as a rule, active = well fitted inhibition curve with a large enough effect; inconclusive = small, poorly fitted or top-dose-only effect; inactive = flat fitted curve, though single readings scatter. Potencies of inconclusive entries are left out as doubtful fits.
% is scaled to controls: 0 for no effect and ±100 for the full control effect; potency is read from the fitted curve at half-maximal effect; tags tell the direction and shape of the fitted curve.

Assay: qHTS for Inhibitors of human tyrosyl-DNA phosphodiesterase 1 (TDP1): qHTS in cells in absence of CPT; also: nearly all actives have a fitted effect of over 55% in size
Conditions: DT40 Tdp1-/- hTDP1 cells, no CPT, ATP luminescence, 48 h; activity change, negative = growth inhibition: at 46.2 µM (top of the series) unless noted
Outline: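 DT40 Tdp1-/-;hTDP1 cells, no CPT (DMSO vehicle only), 400 cells/well; compounds pin-transferred; ≥48 hr, 37 °C; CellTiter-Glo 30 min RT dark, luminescence read.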
With `COc1ccc(Cl)cc1NC(=O)CN1C(=O)C(=O)N(C2CCCC2)C1=O` the “activity change, negative = growth inhibition” value was inactive: -1.29%. In the case of `COc1cc(S(=O)(=O)N2CCN(c3ccccc3)CC2)ccc1F`, the Potency is reported as inconclusive [inhibitor, partial curve, poor fit]. For `CN1COc2ccc3ccccc3c2C1`, the “activity change, negative = growth inhibition” value was inactive: -14.4%. In the case of `Cc1c(CN2CCC(CO)(Cc3cccc(C(F)(F)F)c3)CC2)c2ccccc2n1C`, the Potency is reported as active: 16.4 µM. In the case of `CCCNc1nc2c(c(=O)n(C)c(=O)n2C)n1CCCc1ccccc1`, the Potency is reported as active: 18.4 µM. In the case of `Cc1ccc(NC(=O)N2CCc3ccccc3C2)c(C)c1`, the “activity change, negative = growth inhibition” value is reported as inactive: -1.11%. For `O=C(Cc1cccs1)Nc1nnc(SCc2ccc(C(F)(F)F)cc2)s1`, the Potency was inconclusive [inhibitor, partial curve]. For `O=C1C=CC(=O)N1c1ccccn1`, the Potency was inconclusive [inhibitor, single point]. With `C=CCNC(=S)/N=c1/scc(C)n1C` the “activity change, negative = growth inhibition” value was inactive: -4.09%. In the case of `COc1ccc(NC(=O)CSc2oc(-c3ccco3)nc2S(=O)(=O)c2ccccc2)c(OC)c1`, the Potency is reported as inconclusive [inhibitor, partial curve]. For `Nc1ncncc1-c1ccc([N+](=O)[O-])cc1`, the Potency was inconclusive [inhibitor, single point]. For `CCc1ccc(NC(=O)CSc2nc3c([nH]c4ccccc43)c(=O)n2-c2cccc(OC)c2)cc1`, the activity change, negative = growth inhibition was inconclusive: -33.2% [inhibitor]. With `Cc1cccc(N2CC(C(=O)Nc3ccc(S(=O)(=O)N4CCCCC4)cc3)CC2=O)c1C` (stereo unspecified) the Potency was inconclusive [inhibitor, single point]. For `Cc1cnc(NC(=O)CSc2ccccc2)s1`, the “activity change, negative = growth inhibition” value was inactive: -1.14%. In the case of `CCOC(=O)C1=C(C)OC(N)=C(C(=O)OCC)C1c1ccncc1` (stereo unspecified), the Potency is reported as inconclusive [inhibitor, partial curve]. For `CCOC(=O)c1ccc(NC(=O)Cn2cnc3sc(C(=O)OCC)c(C)c3c2=O)cc1`, the “activity change, negative = growth inhibition” value was inactive: -9.58%. With `Cc1ccc(CNCc2ccccc2Cl)cc1` the Potency was inconclusive [inhibitor, single point]. For `Cc1ccc(C)c(NC(=O)C2(C)CCCN2C(=O)C(C)C)c1` (stereo unspecified), the “activity change, negative = growth inhibition” value was inactive: -4.75%. With `CC(C)(C)n1nnnc1C(c1cc2ccccc2o1)N1CCCCC1` (stereo unspecified) the Potency was inconclusive [inhibitor, partial curve, poor fit]. For `O=C(c1cc2ccccc2o1)N1CCN(c2ncccn2)CC1`, the Potency was inconclusive [inhibitor, single point]. With `Cc1ccc(-c2ccc(/C=N/NC(=O)CN3CCCC3)o2)cc1Cl` the Potency was inconclusive [inhibitor, single point]. With `Nc1[nH]n(-c2ccccc2)c(=O)c1N=Nc1ccc2c(c1)OCCO2` the Potency was inconclusive [inhibitor, partial curve]. In the case of `COc1cc(C)ccc1OCCSc1nc2ccc(NC(C)=O)cc2s1`, the Potency is reported as active: 20.6 µM. In the case of `COc1ccc(C(=O)NCCCN2CCN(CCCNC(=O)c3ccc(OC)c(OC)c3)CC2)cc1OC`, the “activity change, negative = growth inhibition” value is reported as inactive: -19.7%. With `CCOC(=O)N1CCN(c2cc(N)c([N+](=O)[O-])cc2F)CC1` the Potency was inconclusive [inhibitor, single point]. With `O=C(c1ccccc1)C1(c2ccccc2)OC1c1ccccc1` (stereo unspecified) the “activity change, negative = growth inhibition” value was inactive: -25.7%. For `CCCCCn1c(=O)c2c(nc3n2CCN3c2ccc(Br)cc2)n(C)c1=O`, the Potency was inconclusive [inhibitor, partial curve]. With `Cc1ccc2[nH]c(=O)c(CN(CCc3ccccc3)Cc3nnnn3CC3CCCO3)cc2c1` (stereo unspecified) the Potency was inconclusive [inhibitor, partial curve]. For `O=C(CSc1nnc(-c2n[nH]c3ccccc23)n1-c1ccccc1)Nc1cccc(Cl)c1`, the Potency was inconclusive [inhibitor, single point]. With `Cc1ccc(C(=O)/C=C/c2ccc3c(c2)OCO3)o1` the Potency was active: 20.6 µM. For `Cc1ccccc1CNC(=O)C(=O)NCC1CCCN1S(=O)(=O)c1ccccc1` (stereo unspecified), the Potency was inconclusive [inhibitor, partial curve, poor fit]. In the case of `O=C1COc2ccc(-c3csc(NCCc4ccccc4)n3)cc2N1`, the Potency is reported as active: 3.66 µM. In the case of `COc1cccc(NC(=O)COc2cc(O)c3c(c2)OC(C)(C)CC3=O)c1`, the Potency is reported as inconclusive [inhibitor, single point]. In the case of `O=Cc1cn(CC(=O)N2CCc3ccccc32)c2ccccc12`, the Potency is reported as inconclusive [inhibitor, single point]. For `Nc1nc(N2CCCCC2)nc(N(c2ccccc2)c2ccccc2)n1`, the Potency was inconclusive [inhibitor, single point]. In the case of `CC(C)(C)OC(=O)NCCc1nnc(SCc2c(Cl)cccc2Cl)o1`, the “activity change, negative = growth inhibition” value is reported as inactive: 9.11%. In the case of `O=C1/C(=C/c2cccnc2)CC/C1=C\c1cccnc1`, the Potency is reported as inconclusive [inhibitor, partial curve]. For `COc1cccc(-c2csc(N3CCN(C(=S)NCC(C)C)CC3)n2)c1`, the Potency was inconclusive [inhibitor, single point]. For `O=C(NC(c1ccccc1)c1ccsc1)C1CCN(Cc2ccc(Oc3ccccc3)cc2)CC1` (stereo unspecified), the Potency was active: 18.4 µM. With `COc1ccc(-c2nnc(SCC(=O)N3CCC(Cc4ccccc4)CC3)o2)cc1OC` the Potency was inconclusive [inhibitor, single point]. For `Cc1cccc(NC(=O)c2ccccc2NC(=O)C2CCCCC2)c1C`, the Potency was inconclusive [inhibitor, single point]. With `Cc1ccc(-n2[nH]c(C)c(/C=N/Nc3ccc([N+](=O)[O-])cc3[N+](=O)[O-])c2=O)cc1` the Potency was active: 14.6 µM. For `CCOc1ccc(NC(=O)CSc2nc(=O)[nH]c3c2CCC3)cc1`, the Potency was inconclusive [inhibitor, single point]. With `O=c1cccc(-c2ccc3ccccc3c2)o1` the Potency was inconclusive [inhibitor, single point]. For `COc1ccc(NC(=O)CC(C)c2ccccc2)cc1S(=O)(=O)N1CCOCC1` (stereo unspecified), the Potency was inconclusive [inhibitor, single point]. With `CN(CC1COc2ccccc2O1)C(=O)CCNS(=O)(=O)c1ccc(F)c(Cl)c1` (stereo unspecified) the Potency was inconclusive [inhibitor, single point]. For `O=C(CCCC(=O)N1CCCc2ccccc21)N1CCCc2ccccc21`, the Potency was inconclusive [inhibitor, single point]. With `CC(OC(=O)c1cccc(S(=O)(=O)N(C)C)c1)C(=O)NCc1ccc2c(c1)OCO2` (stereo unspecified) the Potency was inconclusive [inhibitor, single point]. In the case of `N#Cc1ccccc1-c1ccc2ncnc(NCc3cccs3)c2c1`, the Potency is reported as inconclusive [inhibitor, single point]. With `Cc1cc(C(=O)NCCc2ccccc2)c2cc(F)ccc2n1` the Potency was inconclusive [inhibitor, single point]. For `CCN1C(=NCCc2cccnc2)N[C@@H](c2ccccc2)C(C(=O)OC)=C1C`, the activity change, negative = growth inhibition was inconclusive: -33.3% [inhibitor]. For `CC(=O)Cc1nsc(Nc2cccc(C)c2)n1`, the “activity change, negative = growth inhibition” value was inactive: -19.5%. In the case of `CC(C)(C)OC(=O)N[C@@H](C(=O)OC(C)(C)C)c1ccc(Br)cc1`, the “activity change, negative = growth inhibition” value is reported as inactive: -2.64%. In the case of `O=C(COc1ccccc1)NCC(=O)N1CCCC(C(F)(F)F)C1` (stereo unspecified), the “activity change, negative = growth inhibition” value is reported as inactive: -5.78%. With `COC(=O)[C@@H]1C[C@@]2(Br)c3ccccc3N(S(=O)(=O)c3ccccc3)[C@H]2N1C(=O)OC` the Potency was inconclusive [inhibitor, single point]. In the case of `COc1ccc(CNC(=O)CN(c2ccc(C)cc2)S(=O)(=O)c2c(C)nn(C)c2C)cc1`, the “activity change, negative = growth inhibition” value is reported as inactive: -20.3%. For `Cc1ccc(C)c(CNC(=O)c2sc3ncnc(N(C)C4CCCCC4)c3c2C)c1`, the Potency was inconclusive [inhibitor, single point]. With `CCc1sc(C(=O)Nc2ccc(OC)c(S(=O)(=O)N3CCOCC3)c2)cc1C` the activity change, negative = growth inhibition was inconclusive: -35.6% [inhibitor]. In the case of `COc1ccc(-c2cc3ccc(O)c(CN4CCCC4)c3oc2=O)cc1OC`, the Potency is reported as inconclusive [inhibitor, single point]. In the case of `COC(=O)c1c(C)[nH]c(C(=O)NCc2ccco2)c1C`, the “activity change, negative = growth inhibition” value is reported as inactive: -4.43%. In the case of `CC1(C)Cc2cccc(OCC(=O)N3CCN(c4ccc([N+](=O)[O-])cc4)CC3)c2O1`, the Potency is reported as inconclusive [inhibitor, single point]. For `CCOC(=O)N1CCN(S(=O)(=O)c2ccc3c(c2)CCN3C(=O)CC)CC1`, the activity change, negative = growth inhibition was inconclusive: -30.2% [inhibitor]. In the case of `Cc1cc(OCC(=O)N(Cc2ccco2)c2c(N)n(Cc3ccccc3)c(=O)[nH]c2=O)ccc1Cl`, the Potency is reported as inconclusive [inhibitor, single point]. In the case of `CC1(C)N=C(N)NC(Nc2ccccc2)=N1`, the Potency is reported as inconclusive [inhibitor, full curve]. In the case of `COc1ccc(OC)c(S(=O)(=O)NCCOC23CC4CC(CC(C4)C2)C3)c1`, the Potency is reported as active: 7.31 µM. With `CCc1nc2ccc(C(=O)Nc3cc(-c4ccccc4)ccc3OC)cn2c1N(C)Cc1ccc(OC)cc1` the Potency was active: 8.2 µM. With `COc1ccc(-n2c(SCc3cn4c(C)cccc4n3)nc3ccccc3c2=O)cc1OC` the Potency was inconclusive [inhibitor, single point]. In the case of `Oc1cc(-c2nc3ccccc3s2)cc2c1OCCN(Cc1cn[nH]c1-c1ccc(Cl)cc1)C2`, the Potency is reported as inconclusive [inhibitor, single point]. In the case of `CSc1nnc2c(=O)[nH]c(=O)n(C)c2n1`, the “activity change, negative = growth inhibition” value is reported as inactive: -1.84%. With `CCOC(=O)c1c(NC(=O)CC2SC(N)=NC2=O)sc(C)c1C` (stereo unspecified) the “activity change, negative = growth inhibition” value was inactive: -39.7%. With `O=C(COC(=O)CNS(=O)(=O)c1c(Cl)cccc1Cl)Nc1ccccc1Sc1ccccc1` the Potency was inconclusive [inhibitor, single point].
